Laboratory results reported in the supplement of paper PMC8728848.
This is one part of the list.

Tests used:
Assay in all cases: glycan array binding signal (z-score within array); higher = stronger binding
Conditions in all cases: glycan notation: IUPAC condensed, linker removed
[1] = molecular target: Fuc(a1-2)[GalNAc(a1-3)]Gal(b1-4)[Fuc(a1-3)]GlcNAc
Method in brief: (§1)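 The binding signal is a Z-score computed within each array and averaged over linkers. Arrays of the same protein sequence at different concentrations or buffers were also averaged together. Data originate from 3228 arrays in the Consortium for Functional Glycomics database, kept only where the protein sequence was available.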

[2] = molecular target: Fuc(a1-2)[GalNAc(a1-4)]Gal(b1-4)GlcNAc
Method in brief: as §1

[3] = molecular target: Fuc(a1-2)[GalNAc(b1-3)]Gal
Method in brief: as §1

Fuc(a1-3)GlcNAc = molecular target: Fuc(a1-3)GlcNAc
Method in brief: as §1

[4] = molecular target: Fuc(a1-3)[Gal(b1-4)]Glc6S
Method in brief: as §1

[5] = molecular target: Fuc(a1-3)[Gal(b1-4)]GlcNAc
Method in brief: as §1

[6] = molecular target: Fuc(a1-3)[Gal(b1-4)]GlcNAc(b1-2)Man(a1-3)[Fuc(a1-3)[Gal(b1-4)]GlcNAc(b1-2)Man(a1-6)]Man(b1-4)GlcNAc(b1-4)GlcNAc
Method in brief: as §1

[7] = molecular target: Fuc(a1-3)[Gal(b1-4)]GlcNAc(b1-2)Man(a1-6)[Gal(b1-4)GlcNAc(b1-2)Man(a1-3)]Man(b1-4)GlcNAc(b1-4)GlcNAc
Method in brief: as §1

[8] = molecular target: Fuc(a1-3)[Gal(b1-4)]GlcNAc(b1-3)Gal(b1-3)[Fuc(a1-4)]GlcNAc
Method in brief: as §1

[9] = molecular target: Fuc(a1-3)[Gal(b1-4)]GlcNAc(b1-4)Gal(b1-4)[Fuc(a1-3)]GlcNAc
Method in brief: as §1

[10] = molecular target: Fuc(a1-3)[Gal(b1-4)]GlcNAc(b1-4)Gal(b1-4)[Fuc(a1-3)]GlcNAc(b1-4)Gal(b1-4)[Fuc(a1-3)]GlcNAc
Method in brief: as §1

[11] = molecular target: Fuc(a1-3)[Gal(b1-4)]GlcNAc6S
Method in brief: as §1

[12] = molecular target: Fuc(a1-3)[Gal3S(b1-4)]Glc6S
Method in brief: as §1

[13] = molecular target: Fuc(a1-3)[Gal3S(b1-4)]GlcNAc
Method in brief: as §1

[14] = molecular target: Fuc(a1-3)[Gal3S(b1-4)]GlcNAc6S
Method in brief: as §1

[15] = molecular target: Fuc(a1-3)[GalNAc(b1-4)]GlcNAc
Method in brief: as §1

Fuc(a1-4)GlcNAc = molecular target: Fuc(a1-4)GlcNAc
Method in brief: as §1

Fuc(b1-3)GlcNAc = molecular target: Fuc(b1-3)GlcNAc
Method in brief: as §1

Gal(a1-2)Gal = molecular target: Gal(a1-2)Gal
Method in brief: as §1

Gal(a1-3)Gal = molecular target: Gal(a1-3)Gal
Method in brief: as §1

Gal(a1-3)Gal(b1-3)GlcNAc = molecular target: Gal(a1-3)Gal(b1-3)GlcNAc
Method in brief: as §1

Gal(a1-3)Gal(b1-4)Glc = molecular target: Gal(a1-3)Gal(b1-4)Glc
Method in brief: as §1

Gal(a1-3)Gal(b1-4)GlcNAc = molecular target: Gal(a1-3)Gal(b1-4)GlcNAc
Method in brief: as §1

[16] = molecular target: Gal(a1-3)Gal(b1-4)[Fuc(a1-3)]GlcNAc
Method in brief: as §1

Gal(a1-3)GalNAc = molecular target: Gal(a1-3)GalNAc
Method in brief: as §1

[17] = molecular target: Gal(a1-3)[Gal(a1-4)]Gal(b1-4)GlcNAc
Method in brief: as §1

Gal(a1-4)Gal(b1-4)Glc = molecular target: Gal(a1-4)Gal(b1-4)Glc
Method in brief: as §1

Gal(a1-4)Gal(b1-4)GlcNAc = molecular target: Gal(a1-4)Gal(b1-4)GlcNAc
Method in brief: as §1

Gal(a1-4)GlcNAc = molecular target: Gal(a1-4)GlcNAc
Method in brief: as §1

Gal(a1-6)Glc = molecular target: Gal(a1-6)Glc
Method in brief: as §1

Gal(b1-2)Gal = molecular target: Gal(b1-2)Gal
Method in brief: as §1

Gal(b1-3)Gal = molecular target: Gal(b1-3)Gal
Method in brief: as §1

Gal(b1-3)Gal(b1-4)GlcNAc = molecular target: Gal(b1-3)Gal(b1-4)GlcNAc
Method in brief: as §1

Gal(b1-3)GalNAc = molecular target: Gal(b1-3)GalNAc
Method in brief: as §1

[18] = molecular target: Gal(b1-3)GalNAc(b1-3)Gal(a1-4)Gal(b1-4)Glc
Method in brief: as §1

[19] = molecular target: Gal(b1-3)GalNAc(b1-4)Gal(b1-4)Glc
Method in brief: as §1

[20] = molecular target: Gal(b1-3)GalNAc(b1-4)[Neu5Ac(a2-3)]Gal(b1-4)Glc
Method in brief: as §1

B1: HFR-1 (Triticum aestivum) (protein)
chain: MSPQSFTLETTTTTPAAKGSDPSYFQSAPACHEMIQHKELLLHLYAYQNVQKTPDANQAVIVESKRPECFGILAANDWTVYDGPAHNANLVAHAQGLHLGASMAKENWFICFNMVFVNQRFTGSSFKVMGDFQGTAHNGEWAIVGGTGEFAYAQGVIAFKKTQQSERNARMELHVRAMCLSFLRPLLSLGDGSAVAKIGPWGKMSGELLDIPSTPQRLERITIRHGVVIDSLAFSFIDKAGEPYNVGPWGGRRGDNKDTIELAPSEIVTEVSGTVGIFAEDNVEYNAIASLTITTNHRPYGPFGETQSTPFSVPVQDNNNIVGFFACAGKYVEALGVYVRSPVST
[1]
  glycan array binding signal (z-score): -0.204
[2]
  glycan array binding signal (z-score): -0.197
[3]
  glycan array binding signal (z-score): -0.033
Fuc(a1-3)GlcNAc
  glycan array binding signal (z-score): -0.18
[4]
  glycan array binding signal (z-score): -0.21
[5]
  glycan array binding signal (z-score): -0.227
[6]
  glycan array binding signal (z-score): -0.107
[7]
  glycan array binding signal (z-score): 0.027
[8]
  glycan array binding signal (z-score): -0.224
[9]
  glycan array binding signal (z-score): -0.165
[10]
  glycan array binding signal (z-score): -0.182
[11]
  glycan array binding signal (z-score): -0.184
[12]
  glycan array binding signal (z-score): -0.148
[13]
  glycan array binding signal (z-score): -0.224
[14]
  glycan array binding signal (z-score): -0.195
[15]
  glycan array binding signal (z-score): -0.231
Fuc(a1-4)GlcNAc
  glycan array binding signal (z-score): -0.057
Fuc(b1-3)GlcNAc
  glycan array binding signal (z-score): -0.127
Gal(a1-2)Gal
  glycan array binding signal (z-score): 0.062
Gal(a1-3)Gal
  glycan array binding signal (z-score): -0.148
Gal(a1-3)Gal(b1-3)GlcNAc
  glycan array binding signal (z-score): -0.064
Gal(a1-3)Gal(b1-4)Glc
  glycan array binding signal (z-score): -0.205
Gal(a1-3)Gal(b1-4)GlcNAc
  glycan array binding signal (z-score): -0.177
[16]
  glycan array binding signal (z-score): -0.141
Gal(a1-3)GalNAc
  glycan array binding signal (z-score): -0.19
[17]
  glycan array binding signal (z-score): -0.199
Gal(a1-4)Gal(b1-4)Glc
  glycan array binding signal (z-score): -0.203
Gal(a1-4)Gal(b1-4)GlcNAc
  glycan array binding signal (z-score): -0.207
Gal(a1-4)GlcNAc
  glycan array binding signal (z-score): -0.22
Gal(a1-6)Glc
  glycan array binding signal (z-score): -0.205
Gal(b1-2)Gal
  glycan array binding signal (z-score): 0.042
Gal(b1-3)Gal
  glycan array binding signal (z-score): -0.136
Gal(b1-3)Gal(b1-4)GlcNAc
  glycan array binding signal (z-score): 0.02
Gal(b1-3)GalNAc
  glycan array binding signal (z-score): -0.084
[18]
  glycan array binding signal (z-score): -0.2
[19]
  glycan array binding signal (z-score): -0.02
[20]
  glycan array binding signal (z-score): -0.166
